Experimental data published in the supplement of paper PMC10126150.
Values marked as one replicate rest on one cluster of the flow cell; about a third of the high ones do not repeat.

Tested on: ATP
Assay: switch fluorescence ratio, 500 uM ATP over buffer (Cy3 cluster intensity, sum of 5 cycles each) (fold (ratio)); higher = stronger signal-on switching upon ATP binding; sequences stand for … in TCGTCGGCAGCGTCAGATGTGTATAAGAGACAGTTTTTTTTTTTTTTTTTTTTTTTTT…TC
Conditions: aptamer strand: ATP DNA aptamer (quencher-CACCTGGGGGAGTATTGCGGAGGAAGG + anchor), 100 nM annealed; ATP concentration: 500 uM; one replicate
How it was run: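 Imaging in selection buffer was followed by imaging after 15 min with 500 uM ATP at 22 °C, for Cy3-labelled switching-strand clusters annealed to 100 nM quencher-labelled ATP aptamer on a modified Illumina MiSeq flow-cell. Five of these buffer/ATP cycles ran, separated by NaOH stripping and re-annealing. The fluorescence ratio per cluster is summed target-cycle over summed buffer-cycle Cy3 intensity, averaged per switch-domain sequence; clusters outside 100-1000 RFU were removed.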
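Further: ATP exposure 15 min at 22 °C before imaging.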

Row | Sequence | switch fluorescence ratio
1 | CGCCAACAGC | 1.37
2 | GTTCCGATTT | 1
3 | TAGTAAGGTG | 1.08
4 | GACGGATCAT | 0.988
5 | CGATGAAACT | 0.979
6 | CCCTATTCG | 0.986
7 | ACGAATGTTT | 0.973
8 | AACTGCCGA | 1.04
9 | AATGCCGCAT | 1.06
10 | GATTACTGTT | 1.08
11 | TTATCAAGTC | 1.05
12 | CCAGTTAGTA | 1.01
13 | CTCTAAGGTG | 2.02
14 | GGCTTTCCAT | 0.998
15 | TCAGGCTAGT | 1.03
16 | ATATACTCAC | 1.3
17 | ACTTGATCAG | 1.02
18 | GTAACCTTT | 1.04
19 | GCAGCCTATT | 1.38
20 | TGCGTATACT | 0.982
21 | CGTTATCGGC | 0.966
22 | CCATTGGGGG | 0.966
23 | CAGCGAAGAT | 0.992
24 | GTATTGGCAG | 1.02
25 | GACTGTCCAG | 1
26 | GGTCACGAGG | 1

Row | Sequence | switch fluorescence ratio
27 | TATGATCGGA | 1.02
28 | CCTAAGGACT | 1.01
29 | CAAAGGGCGC | 0.936
30 | CAAAAACAG | 1.05
31 | CGCCACTAGA | 1.02
32 | TACGATGGAT | 1.01
33 | ACCCACATAG | 1.31
34 | TCCATCCTTG | 1
35 | TACCCACACA | 1.39
36 | TAAATAAAC | 0.983
37 | TCGTAGAAG | 0.942
38 | GTCAAATTGA | 1.04
39 | CGGGGCGCCG | 0.984
40 | CAGTATACGT | 1.03
41 | AATCCCGTAT | 0.981
42 | AATACGGGCT | 1.05
43 | TGAAACTCTT | 0.993
44 | ATCAGACTGA | 0.978
45 | CAATATAATA | 0.998
46 | AAGGGCGCGT | 0.961
47 | ATTCGACC | 1.01
48 | TATACTAATT | 1.03
49 | GCGAGGCTTA | 1.04
50 | AGGAAGTACG | 1.14
51 | TATCGCCTTT | 0.99
52 | CAGTTTCCTA | 0.967

Row | Sequence | switch fluorescence ratio
53 | AGAATTCGGA | 0.997
54 | TCACTTACGA | 1.4
55 | CCGGATGTGT | 1.04
56 | TATATTGCCA | 1.02
57 | TCCTAAGTAG | 1.06
58 | CTGGAGCGGC | 1.75
59 | GCATTATCTT | 1.06
60 | CGCAGAAGCT | 1
61 | GACATTCAG | 0.992
62 | ATGTCCCAGA | 0.999
63 | CGAGAGGGCT | 0.973
64 | CAATGCGGGT | 0.967
65 | CCCCCATGCA | 1.75
66 | CATTTGACGA | 1.01
67 | CATGACGTAC | 1.77
68 | ACAGGAGATT | 1.05
69 | GGCGCTCCAC | 1.14
70 | ACGTTTATAC | 3.37
71 | ACTCTTAGAA | 1.01
72 | AGGCGGAGTA | 1
73 | TACAGACATC | 1.05
74 | ACATATTAAG | 0.988
75 | CGCTCTAGGG | 1.03
76 | ATATTGTAAA | 0.991
77 | TATCGTTAGA | 0.973
78 | CTTGTTTTGG | 0.986

Row | Sequence | switch fluorescence ratio
79 | TATTGTAAAT | 0.946
80 | CGATTTGAGC | 1
81 | CTGTGTAGGG | 0.981
82 | AGACGGCCTT | 1.02
83 | CAATGAGGTT | 1.01
84 | ACTAACATGT | 1.01
85 | ATGACAGA | 1.05
86 | TTAGTGATGG | 1.01
87 | CAGGTGGATT | 1.54
88 | CAGCGATCCA | 1.03
89 | CGTAGCGTTA | 1.54
90 | AGCTGTACAG | 1.02
91 | TTAGTAGAT | 0.993
92 | TCATAGGGTT | 1.11
93 | ACTTTGATCC | 1.03
94 | ATTGATATGT | 1
95 | TCGCAGAGAA | 1.03
96 | AATGTTC | 1.01
97 | GTTGCGTAT | 0.948
98 | GTTGTCACGA | 1.04
99 | CATATTGATC | 1.06
100 | GGCTGGGACT | 0.937
101 | GGGTCCAGC | 0.974
102 | TAATCATCCT | 1.08
103 | AATGTCCCCT | 1
104 | CTTAGGTCAA | 0.976

Row | Sequence | switch fluorescence ratio
105 | CTATTTAGCT | 1.02
106 | TAAGCTTGTC | 1.14
107 | GGCCTAGGCA | 0.995
108 | CTATGGCGGG | 0.964
109 | GAGTTACACT | 1
110 | TAAAGTTGGA | 0.936
111 | CTGCGCCATA | 1.65
112 | AAGGCTACAA | 1.04
113 | TTCAAATGGT | 1.23
114 | GGGGACAACC | 0.991
115 | ACCGATGGCA | 0.983
116 | AGGTCGCGAT | 1.03
117 | GGGTCACCTT | 0.977
118 | ATCGAACGCC | 1.2
119 | CCAACTATTG | 0.965
120 | TGAGTATTG | 1.02
121 | AACAACTAGA | 1.03
122 | GGGACCGCTG | 0.997
123 | CGGGATCGCC | 0.924
124 | GATTTAGTCT | 1.06
125 | CCATAAATAT | 1.01
126 | TTCCGTCCTT | 0.983
127 | CCATAGCGT | 2.18
128 | AGGCTGATGT | 0.964
129 | TGGGGATACA | 1.04
130 | TGGGAGCTGG | 1.09

Row | Sequence | switch fluorescence ratio
131 | AGTTGGGAGG | 0.975
132 | AATTGAGTAC | 1.01
133 | AGGTAACAG | 0.995
134 | CTGATTCCCC | 1.14
135 | TAGTCTCAC | 1.01
136 | CACCCAACCG | 1.15
137 | ATAAGTCGAA | 0.956
138 | ACTTCGTGTG | 0.978
139 | TTCCGACTGA | 3.44
140 | TAGCCCTTGC | 1.03
141 | TGAGGGGACC | 1.03
142 | TTTTGTCTT | 1.01
143 | TTCGAGCGTC | 1.05
144 | CACTAGACTC | 1.12
145 | GATTTCTAGT | 0.981
146 | CAATAGAA | 0.983
147 | AAGGCATTAG | 1.05
148 | ATCTGGTCCA | 0.991
149 | TCCTTAAGGG | 1.03
150 | GGATCTTAG | 1
151 | TGAGTAAAGA | 0.977
152 | CGGCTATATT | 1.02
153 | TAATATGAAA | 0.987
154 | TTTATACAAG | 0.973
